Assay results published in article PMC4336329 (PLoS ONE, 2015).
The whole screen tested about 310,000 compounds, of which about 14,000 (4.5%) showed an effect of 50% or more. The effect is printed as a negative number. This is one part of the list.

target: human ether-à-go-go-related gene (hERG) potassium channel (human, UniProt Q12809); test: primary screen, population patch clamp on CHO cells stably expressing hERG
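Also: peak tail current of the secondary pulse compared with the same well before compound.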

Sequence of human ether-à-go-go-related gene (hERG) potassium channel (Q12809 whole entry, looked up): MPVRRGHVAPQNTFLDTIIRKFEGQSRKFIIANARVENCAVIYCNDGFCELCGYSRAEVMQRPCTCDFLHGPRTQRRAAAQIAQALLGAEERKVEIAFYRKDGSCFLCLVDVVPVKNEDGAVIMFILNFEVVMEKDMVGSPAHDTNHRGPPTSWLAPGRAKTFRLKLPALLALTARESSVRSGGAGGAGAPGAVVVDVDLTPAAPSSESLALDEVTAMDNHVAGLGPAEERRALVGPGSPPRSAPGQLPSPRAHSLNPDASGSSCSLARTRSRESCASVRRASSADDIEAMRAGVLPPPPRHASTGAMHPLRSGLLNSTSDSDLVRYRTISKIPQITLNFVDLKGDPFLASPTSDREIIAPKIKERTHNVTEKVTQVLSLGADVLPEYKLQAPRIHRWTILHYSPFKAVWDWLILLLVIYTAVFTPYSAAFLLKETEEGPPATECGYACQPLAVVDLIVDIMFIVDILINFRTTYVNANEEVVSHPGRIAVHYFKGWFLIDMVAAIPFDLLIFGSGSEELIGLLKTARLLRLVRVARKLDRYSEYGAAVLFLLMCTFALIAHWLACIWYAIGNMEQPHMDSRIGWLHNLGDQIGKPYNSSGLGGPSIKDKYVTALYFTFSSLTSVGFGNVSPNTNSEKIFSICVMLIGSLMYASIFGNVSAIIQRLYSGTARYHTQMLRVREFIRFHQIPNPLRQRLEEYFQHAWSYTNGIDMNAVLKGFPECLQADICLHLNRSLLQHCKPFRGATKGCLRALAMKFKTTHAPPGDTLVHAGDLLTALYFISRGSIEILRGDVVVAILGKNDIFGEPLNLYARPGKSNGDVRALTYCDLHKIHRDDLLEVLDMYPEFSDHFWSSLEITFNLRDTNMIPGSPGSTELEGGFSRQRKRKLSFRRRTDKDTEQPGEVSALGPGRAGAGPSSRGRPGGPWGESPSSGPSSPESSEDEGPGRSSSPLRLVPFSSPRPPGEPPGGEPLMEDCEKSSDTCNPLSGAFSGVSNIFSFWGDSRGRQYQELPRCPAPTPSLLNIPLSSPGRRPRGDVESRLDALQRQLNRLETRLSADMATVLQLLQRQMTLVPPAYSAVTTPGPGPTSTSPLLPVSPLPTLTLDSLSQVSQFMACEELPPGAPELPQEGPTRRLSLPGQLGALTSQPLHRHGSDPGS

Compared with `Cc1c(-c2ccccc2)[n+](=O)c(-c2ccco2)c(C)n1[O-]`, `COc1cccc(OC)c1C(=O)Nc1nc(-c2ccccc2)cs1` is lower in “hERG current change (%, negative = inhibition) at 10uM” value: 7.02% for the first, 4.14% for the second.

Compared with `CCn1c(=O)c(C(=O)Nn2c(C)nc3ccccc3c2=O)c(O)c2ccccc21`, `CCn1c(SCC(=O)N/N=C/C=C/c2ccccc2[N+](=O)[O-])nnc1-c1ccccc1` is lower in “hERG current change (%, negative = inhibition) at 10uM” value: -18.4% for the first, -36.6% for the second.

Compared with `CCC(CC)C(=O)c1c[nH]c(C(=O)NCc2ccccn2)c1`, `COc1ccccc1C(=O)N/N=C(\C)CC(=O)Nc1ccc(Cl)cn1` is lower in “hERG current change (%, negative = inhibition) at 10uM” value: -1.16% for the first, -22.2% for the second.

Compared with `O=C(NC1CCCC1)C(c1ccncc1)N(CCCN1CCOCC1)C(=O)c1ccc(-c2ccccc2)[nH]1` (centres unmarked), `O=C(NC1CCCCC1)C(c1ccc(Cl)cc1)N(C(=O)c1ccccn1)c1cccnc1` (centres unmarked) is higher in “hERG current change (%, negative = inhibition) at 10uM” value: -61.1% for the first, 31% for the second.

First: CC(=O)N(O)CCCCCNC(=O)CCC(=O)N(O)CCCCCNC(=O)CCC(=O)N(O)CCCCCN.CS(=O)(=O)O
Second: C#CCOCCOCCOCCNc1nc(N2CCN(C(=O)C(CCC(=O)O)n3cc(C(N)CC(C)C)nn3)CC2)nc(N2CCN(C(=O)C(Cc3cc4ccccc4[nH]3)n3cc(C(N)Cc4ccc(O)cc4)nn3)CC2)n1.Cl (centres unmarked)
The “hERG current change (%, negative = inhibition) at 10uM” value of the first is higher: 13.5% for the first, -2.51% for the second.

Going from `Cc1ccc(/C=C/C(=O)N2CCCC(C)C2)cc1` (centres unmarked) to `CSC1=NCCN1C(=O)c1ccc(C)cc1`, the “hERG current change (%, negative = inhibition) at 10uM” value rises from -8.25% to 4.27%.

Going from `O=Nc1ccc(NOC(=O)c2ccccc2Br)cc1` to `Cc1c(C(=O)Nc2ccc(C(=O)Nc3ccccc3)cc2)cccc1[N+](=O)[O-]`, the “hERG current change (%, negative = inhibition) at 10uM” value rises from 3.45% to 26.7%.

First: O=C1/C(=C\c2ccc(Br)o2)SC(=Nc2ccccc2)N1c1ccccc1
Second: Cc1ccccc1S(=O)(=O)Cc1ccc(C(=O)NC(C)c2ccccc2)o1 (centres unmarked)
The “hERG current change (%, negative = inhibition) at 10uM” value of the first is lower: -10.1% for the first, -3.26% for the second.

Going from `CCOc1ccc(-n2ccnc2)nn1` to `CCOC(=O)C(=O)Nc1ccccc1C(N)=O`, the “hERG current change (%, negative = inhibition) at 10uM” value falls from -0.284% to -16.3%.

Compared with `O=C(NCc1ccc2c(c1)OCO2)c1ccc(CS(=O)(=O)Cc2cccc(Cl)c2)o1`, `O=C(COC(=O)c1ccc2c(c1)OCO2)NCc1ccc(Cl)cc1` is lower in “hERG current change (%, negative = inhibition) at 10uM” value: 5.36% for the first, 1.69% for the second.

Going from `CCC(=O)Nc1c2c(nn1-c1ccc(C)cc1C)CSC2` to `CCOC(=O)c1c(C)nc2cc(C)cc(C)n12`, the “hERG current change (%, negative = inhibition) at 10uM” value rises from -1.3% to 10.4%.

Compared with `COc1cccc(NC(=O)CSCC(=O)Nc2ccccc2)c1`, `O=C(CN1CCC(NC(=O)Nc2ccccc2)CC1)Nc1ccccc1F` is lower in “hERG current change (%, negative = inhibition) at 10uM” value: -0.86% for the first, -18.3% for the second.

Going from `CCc1cccc(CC)c1-n1c(SCC(=O)c2c(N)n(C)c(=O)n(C)c2=O)nnc1-c1cccnc1` to `COCCN(C(=O)CSc1nnc(-c2cccc(F)c2)n1N)c1c(N)n(Cc2ccccc2)c(=O)[nH]c1=O`, the “hERG current change (%, negative = inhibition) at 10uM” value rises from -2.55% to 0.307%.

Going from `CCOc1c(Br)cc(/C=C2\N=C(C)OC2=O)cc1Br` to `CCS(=O)(=O)C1=NN2C(=N)/C(=C\c3ccc(OC(=O)c4ccco4)c(Br)c3)C(=O)N=C2S1`, the “hERG current change (%, negative = inhibition) at 10uM” value falls from 12.1% to 11.7%.

First: CCC(C)(C)n1nnnc1C(c1ccc(F)cc1)N1CCN(C(=O)c2ccco2)CC1 (centres unmarked)
Second: CCN1CCN(c2ccc(S(=O)(=O)N3CCCCC3)cc2NC(=O)C(C)Oc2ccc(F)cc2)CC1 (centres unmarked)
The “hERG current change (%, negative = inhibition) at 10uM” value of the first is higher: -41.9% for the first, -72.7% for the second.

First: CN1CCCC(C(O)(c2ccccc2)c2ccccc2)C1 (centres unmarked)
Second: OCCC1CN(Cc2nc(-c3ccccc3)cs2)CCN1CCc1ccccc1 (centres unmarked)
The “hERG current change (%, negative = inhibition) at 10uM” value of the first is higher: 16.3% for the first, -77.8% for the second.

Going from `COc1cccc(C(C(=O)NC2CCCCC2)N(C(=O)c2ccccn2)c2cccnc2)c1` (centres unmarked) to `COc1ccc(N(C(=O)c2cccnc2)S(=O)(=O)c2cc(OC)ccc2OC)cc1`, the “hERG current change (%, negative = inhibition) at 10uM” value falls from -16.8% to -21.8%.

Going from `O=C(CNC(=O)c1[nH]cnc1C(=O)N[C@@H](Cc1ccccc1)C(=O)OCc1ccccc1)OCc1ccccc1` to `CCN(CC(=O)Nc1c(F)cccc1F)C(=O)c1ccc(COc2ccccc2)cc1`, the “hERG current change (%, negative = inhibition) at 10uM” value falls from 7.48% to -10.9%.

First: CC(C)c1ccc(NC(=O)CCN2C(=O)[C@@H]3Cc4ccccc4CN3C2=O)cc1
Second: CCCN1Cc2cccc(C(=O)NC(CC(=O)OCC)c3ccc(C)cc3)c2C1=O (centres unmarked)
The “hERG current change (%, negative = inhibition) at 10uM” value of the first is higher: 4.7% for the first, -81.7% for the second.

Compared with `O=C(NC1CCCCCC1)C1CCN(C(=O)c2cccc(Cl)c2)CC1`, `CC1(C)CC(=O)C(C=NCC2CCN(C(=S)Nc3cccc(Cl)c3)CC2)=C(O)C1` is lower in “hERG current change (%, negative = inhibition) at 10uM” value: -6.56% for the first, -62.4% for the second.

Compared with `COc1cccc(OCC(=O)Nc2ccc(OC)c(OC)c2)c1`, `COc1ccc(CCn2c(O)c(C=Nc3ccc(F)cc3)c(=O)[nH]c2=O)cc1OC` is higher in “hERG current change (%, negative = inhibition) at 10uM” value: 1.76% for the first, 2.45% for the second.

First: Cc1ccc(N(C(=O)C2CCCO2)C2C=CS(=O)(=O)C2)cc1Cl (centres unmarked)
Second: COc1ccccc1OCc1nc(C#N)c(N2CCC(C(N)=O)CC2)o1
The “hERG current change (%, negative = inhibition) at 10uM” value of the first is higher: -4.44% for the first, -26.2% for the second.

First: CCc1ccc2c(c1)C(c1ccc([N+](=O)[O-])cc1)=NNC(c1ccccc1)=N2
Second: COc1ccccc1S(=O)Cc1ccc(C(=O)NCCc2ccc(Cl)cc2)o1 (centres unmarked)
The “hERG current change (%, negative = inhibition) at 10uM” value of the first is higher: -23.2% for the first, -65.4% for the second.

First: COc1ccc(-c2ccc(CO)o2)cc1N
Second: COc1ccc([C@H]2CC(=O)C=C(c3cc(F)ccc3OC)C2)cc1
The “hERG current change (%, negative = inhibition) at 10uM” value of the first is higher: 27.7% for the first, 2.84% for the second.

Going from `CC(NC(=O)c1cc(-c2cccs2)on1)c1ccccc1` (centres unmarked) to `Cn1c(=O)n(C)c2cc(NC(=O)CCc3ccccc3)c(Br)cc21`, the “hERG current change (%, negative = inhibition) at 10uM” value falls from 16% to 11.2%.

Going from `CCCCNC(=S)Nc1ccc2[nH]c(=O)[nH]c2c1` to `COc1ccc(-n2c(Cc3cccn3C)nnc2SCC(=O)Nc2cc(C)cc(C)c2)cc1`, the “hERG current change (%, negative = inhibition) at 10uM” value falls from 16.4% to -52.4%.

`CN1CCN(Cc2cc(=O)oc3cc4c(cc23)CCC4)CC1` was tested, and the “hERG current change (%, negative = inhibition) at 10uM” value was -8.2%.
